According to PubChem BioAssay AID445 (National Center for Advancing Translational Sciences (NCATS), 2006):
The whole screen tested about 110,000 compounds, of which about 40 (0.04%) were called active. The shares of active, inactive and inconclusive entries below differ from those in the screen. The call rests on the fitted dose curve; in most records, active means well fitted curve in the direction sought with a large enough effect in the signal ratio (not every such curve was filed as active); inconclusive means small, poorly fitted or top-dose-only effect, or a change in a side signal; inactive means flat fitted curve, though single readings scatter; the % refers to the signal ratio. Potencies beside an inconclusive call are fits to weak or partial responses and may not hold up.

Test: IkB Signaling;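 on IkBa stabilization activation: 0% = basal untreated cells and 100% = reference inhibitor full response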
Conditions: ABC-DLBCL IkBa-CBG/CBR dual luciferase ratio (green luciferase fused to IkBa over red control in OCI-Ly3 lymphoma cells), 4 h, scaled: untreated 0%
In short: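 Luminescence ratio of IκBα-fused green versus native red beetle luciferase in OCI-Ly3 cells, 4 h post-doxycycline with compound; red signal alone, scaled from basal (0%) to zero light (-100%), flagged nonspecific or cytotoxic effects.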

[1] = IkBa stabilization activation: at 57.1 µM (top of the series), proteasome inhibitor 100% unless noted
Potency means the concentration at half of the fitted maximal effect.

## COc1ccc(-c2nc(C)c(CCNC(=O)c3cc(OC)c(OC)c(OC)c3)s2)cc1OC
[1]
  IkBa stabilization activation: inconclusive: -2.21% [signal inhibitor]

## O=C(NCc1ccccc1)c1cc2ccccc2o1
[1]
  IkBa stabilization activation: inconclusive: 3% [signal inhibitor]

## COc1ccc(OC)c2sc(N(Cc3cccnc3)C(=O)c3ccc(C(C)=O)cc3)nc12
[1]
  IkBa stabilization activation: inactive

## c1ccc2c(c1)ncn2Cc1nnc2sc(-c3ccc4c(c3)OCO4)nn12
[1]
  IkBa stabilization activation: inactive

## CC(NC(=O)C(=O)Nc1c2c(nn1-c1ccccc1)CSC2)c1ccccc1 (configuration not stated)
[1]
  IkBa stabilization activation: inactive

## Cc1ccc2c(c1)c(=O)c(C(=O)c1ccncc1)cn2CC(=O)Nc1ccc(C(C)C)cc1
[1]
  IkBa stabilization activation: inconclusive: -0.225% [signal inhibitor]

## O=C(NC1=NCCS1)C1COc2ccccc2O1 (configuration not stated)
[1]
  Potency: inconclusive: 25.1 µM [signal inhibitor, partial curve]

## O=C(Nc1nccs1)C1C2CC3OC(=O)C1C3C2 (configuration not stated)
[1]
  IkBa stabilization activation: inactive

## Cc1nnc(N2CCN(c3ccccc3F)CC2)c2c1nnn2Cc1ccccc1Cl
[1]
  IkBa stabilization activation: inconclusive: -0.0822% [signal inhibitor]

## CCOc1ccc(NCc2cccn2-c2nnc(N3CCC(C(=O)NCc4ccc(C)cc4)CC3)s2)cc1
[1]
  IkBa stabilization activation: inconclusive: -2.57% [signal inhibitor]

## CC(C)Oc1ccc(C(=O)Nc2ccc(N(C)C)cc2)cc1
[1]
  IkBa stabilization activation: inactive

## COc1ccc2nc3oc(C(=O)N(C)c4ccc(Cl)cc4)cc3cc2c1
[1]
  IkBa stabilization activation: inconclusive: 0.966% [signal inhibitor]

## COc1cc2c(cc1OC)C1=C(C#N)CC/C(=N\S(=O)(=O)c3ccccc3)N1CC2
[1]
  IkBa stabilization activation: inactive

## O=C(Nc1ccc(N2CCCC2)cc1)c1cccc(F)c1
[1]
  Potency: inconclusive: 7.94 µM [signal inhibitor, partial curve]

## CC(C)C(O)(C(C)C)C(C)C
[1]
  IkBa stabilization activation: inactive: -0.0198% [at 11.4 µM, scaled: untreated 0%, proteasome inhibitor 100%]

## O=C(NCCc1ccccc1)NC1CCCCC1
[1]
  IkBa stabilization activation: inconclusive: 13.5% [signal inhibitor]

## O=C(C1CCN(S(=O)(=O)c2ccccc2)CC1)N(CCc1ccccc1)Cc1ccco1
[1]
  IkBa stabilization activation: inconclusive: 1.73% [signal inhibitor]

## Cc1cccc(-n2ncc(C(=O)N3CCN(C(=O)c4ccco4)CC3)c2C2CCN(C(=O)OC(C)(C)C)CC2)c1
[1]
  IkBa stabilization activation: inconclusive: 2.09% [signal inhibitor]

## Cc1ccc2c(=O)cc(C(=O)Nc3ccc(S(=O)(=O)Nc4onc(C)c4C)cc3)oc2c1
[1]
  IkBa stabilization activation: inconclusive: 0.47% [signal inhibitor]

## COc1cccc([C@@H]2Nc3ccc(C(=O)O)cc3[C@@H]3C=CC[C@@H]32)c1OC
[1]
  IkBa stabilization activation: inconclusive: 1.15% [signal inhibitor]

## Cc1cc(C)c2[nH]c(=O)c(CN(Cc3nnnn3C3CCCC3)C3CCCCC3)cc2c1
[1]
  IkBa stabilization activation: inconclusive: 7.79% [signal inhibitor]

## CCCn1c(=NC(=O)c2ccncc2)c(C#N)cc2c(=O)n3cccc(C)c3nc21
[1]
  IkBa stabilization activation: inactive

## CCOc1ccc(S(=O)(=O)n2cnc3cc(C)c(C)cc32)cc1
[1]
  IkBa stabilization activation: inconclusive: 16.8% [signal inhibitor]

## Cc1ccc(S(=O)(=O)c2cc3c(=O)n4ccccc4nc3n(Cc3ccco3)c2=N)cc1C
[1]
  Potency: inconclusive: 15.8 µM [rising, partial curve]

## CCCc1nc(N)c(C#N)c(N)c1C#N
[1]
  IkBa stabilization activation: inactive

## COc1ccc(C)cc1NC(=O)C1CCCN(S(=O)(=O)c2ccc3c(c2)oc(=O)n3C)C1 (configuration not stated)
[1]
  IkBa stabilization activation: inconclusive: 0.0467% [signal inhibitor]

## CCCn1c(NC(=O)c2ccc(Cl)c(S(=O)(=O)N3CCCC3)c2)nc2ccccc21
[1]
  Potency: inconclusive: 20 µM [signal inhibitor, partial curve]

## CC(=O)Nc1ccc(S(=O)(=O)N2CCN(c3ccccc3)CC2)cc1
[1]
  IkBa stabilization activation: inconclusive: 1.9% [signal inhibitor]

## COc1ccc(N(C(=O)Cn2nnc3ccccc32)C(C(=O)NCc2ccco2)c2ccc(C)o2)cc1 (configuration not stated)
[1]
  IkBa stabilization activation: inactive

## Cc1ccc(SCc2nc(-c3ccc(C(=O)NCc4ccccc4Cl)cc3)oc2C)cc1
[1]
  IkBa stabilization activation: inconclusive: 1.83% [signal inhibitor]

## COc1ccc(CCNC(=O)CCCn2c(=O)[nH]c3cc(OC)c(OC)cc3c2=O)cc1OC
[1]
  IkBa stabilization activation: inactive

## Cc1ccc2c(c1)-c1c(cnn1CC(=O)N1CCCN(Cc3ccccc3F)C1)CO2
[1]
  IkBa stabilization activation: inconclusive: 1.62% [signal inhibitor]

## COc1cccc(CNC(=O)CN(c2ccc(C(C)C)cc2)S(=O)(=O)c2c(C)n[nH]c2C)c1
[1]
  IkBa stabilization activation: inconclusive: -0.296% [signal inhibitor]

## Cn1cc(S(=O)(=O)N2CCCC2)cc1C(=O)Nc1ccc(C(F)(F)F)cc1
[1]
  IkBa stabilization activation: inactive

## COc1ccc(CNc2oc(COc3cccc(C)c3)nc2C#N)cc1
[1]
  IkBa stabilization activation: inconclusive: -1.55% [signal inhibitor]

## CCCc1ccc(OCc2ccc(C(=O)N3CCN(c4ccccn4)CC3)o2)c(OC)c1
[1]
  IkBa stabilization activation: inconclusive: -3.88% [signal inhibitor]

## N#CCCn1c(=O)cnc2cnc(OCc3ccccc3)nc21
[1]
  IkBa stabilization activation: inactive: -1.78% [at 11.4 µM, scaled: untreated 0%, proteasome inhibitor 100%]

## COc1cccc2cc(-c3nnc(-c4ccc(Cl)cc4)o3)c(=O)oc12
[1]
  Potency: inconclusive: 25.1 µM [signal inhibitor, single point]

## CCc1nn(CC(=O)N2CCN(c3cccc(C(F)(F)F)c3)CC2)c(=O)c2cc3occc3n12
[1]
  IkBa stabilization activation: inconclusive: 1.09% [signal inhibitor]

## CCN(CC)S(=O)(=O)c1cccc(C(=O)Nc2ccc(Cl)cn2)c1
[1]
  IkBa stabilization activation: inconclusive: 2.95% [signal inhibitor]

## CCOC(=O)Cc1csc(NC(=O)c2ccc(Br)s2)n1
[1]
  IkBa stabilization activation: inconclusive: 5.84% [signal inhibitor]

## COc1ccc2c(CNCc3cccs3)c(C(=O)O)n(Cc3ccc(F)cc3Cl)c2c1
[1]
  IkBa stabilization activation: inconclusive: -3.63% [signal inhibitor]

## CC(C)CCOc1ccc(Oc2nc(N(C)C)nc(N(C)C)n2)nn1
[1]
  IkBa stabilization activation: inconclusive: 0.238% [signal inhibitor]

## CCCCNS(=O)(=O)c1ccc2nc(SCC(=O)Nc3sccc3C#N)[nH]c2c1
[1]
  IkBa stabilization activation: inconclusive: -0.201% [signal inhibitor]

## CCOc1ccccc1N(C)C(=O)Cn1cnc2onc(-c3ccc(F)cc3)c2c1=O
[1]
  IkBa stabilization activation: inactive

## COc1ccc(NC(=O)CN(C)S(=O)(=O)c2ccc3c(c2)CCCN3C(C)=O)cc1Cl
[1]
  IkBa stabilization activation: inconclusive: 0.714% [signal inhibitor]

## Cc1cc(Nc2ccc(C(C)C)cc2)nc(-n2nc(C)cc2C)n1
[1]
  IkBa stabilization activation: inconclusive: 2.87% [signal inhibitor]

## CC(C)Oc1cccc(C(=O)Nc2ccc(-c3nc4cc(Cl)cc(Cl)c4o3)cc2)c1
[1]
  IkBa stabilization activation: inconclusive: 6.58% [signal inhibitor]

## COc1ccc(CNc2nc(-c3cccc(C#N)c3)nc3ccccc23)c(OC)c1
[1]
  IkBa stabilization activation: inactive: 0.626% [at 11.4 µM, scaled: untreated 0%, proteasome inhibitor 100%]

## Cc1cccc2sc(N(Cc3cccnc3)C(=O)Cc3ccccc3)nc12
[1]
  IkBa stabilization activation: inconclusive: -0.289% [signal inhibitor]

## Cc1ccc(NC(=O)CSc2nc(-c3cccs3)cc(C(F)(F)F)n2)cc1C
[1]
  IkBa stabilization activation: inconclusive: -2.12% [signal inhibitor]

## Oc1c(CN2CCN(c3ccccc3)CC2)cc(Br)c2cccnc12
[1]
  IkBa stabilization activation: inactive: 8.69% [at 11.4 µM, scaled: untreated 0%, proteasome inhibitor 100%]

## Cc1cccc(NC(=O)CSc2cn(CC(=O)N3CCOCC3)c3ccccc23)c1
[1]
  IkBa stabilization activation: inconclusive: 2.82% [signal inhibitor]

## COc1ccc(S(=O)(=O)N(CCc2ccccc2)CC(=O)Nc2cc(C)ccc2C)cc1
[1]
  IkBa stabilization activation: inconclusive: 6.79% [signal inhibitor]

## CCc1ccc(NC(=O)C2CCN(S(=O)(=O)c3c(C)noc3/C=C/c3cccs3)CC2)cc1
[1]
  IkBa stabilization activation: inconclusive: 0.101% [signal inhibitor]

## CCOC(=O)C1=C(c2ccccc2)Nc2ncnn2C1c1ccc(Cl)cc1 (configuration not stated)
[1]
  IkBa stabilization activation: inconclusive: 4.95% [signal inhibitor]

## COc1ccc(CNC(=O)c2ccc3c(c2)NC(=O)C(CS(=O)(=O)Cc2ccccc2Cl)N3)cc1 (configuration not stated)
[1]
  IkBa stabilization activation: inconclusive: 0.209% [signal inhibitor]

## O=C(c1ccc2c(c1)N(Cc1cccc(Cl)c1)C(=O)c1ccccc1S2(=O)=O)N1CCC(Cc2ccccc2)CC1
[1]
  IkBa stabilization activation: inconclusive: 1.19% [signal inhibitor]

## Cc1nc2ccc(S(=O)(=O)N(CC(=O)Nc3ccc(Cl)cc3)Cc3ccccc3)cc2s1
[1]
  Potency: inconclusive: 25.1 µM [signal inhibitor]

## COc1cc(Cl)c(C)cc1Nc1c2c(nc3ccccc13)CCC2
[1]
  IkBa stabilization activation: inconclusive: 18.1% [signal inhibitor]

## Cc1cc(-c2csc(NC(=O)c3cc4ccccc4o3)n2)c(C)n1C
[1]
  IkBa stabilization activation: inconclusive: 5.09% [signal inhibitor]

## CN1C(=O)Cn2c1nc1ccccc12
[1]
  IkBa stabilization activation: inactive

## COc1cc(NC(=O)CCCN2C(=O)CCn3nc(-c4cn(C)c5ccccc45)cc32)cc(OC)c1
[1]
  IkBa stabilization activation: inconclusive: 3.68% [signal inhibitor]

## CSc1nc(C)cc(Nc2cccc(C(=O)O)c2)n1
[1]
  Potency: inconclusive: 20 µM [signal inhibitor]

## O=c1c(O)c(-c2ccc(O)cc2)oc2cc(O)cc(O)c12
At 11.4 µM (top of the series), proteasome inhibitor 100%
  IkBa stabilization activation: inactive: -1.28%
At 25.6 µM (top of the series), proteasome inhibitor 100%
  IkBa stabilization activation: inconclusive: -2.03% [signal inhibitor]
At 57.1 µM (top of the series), proteasome inhibitor 100%
  IkBa stabilization activation: inconclusive: -6.05% [signal inhibitor]
